Data published in the RNAGym collection of RNA variant scans (doi:10.1093/nar/gkz1192).
Read counts are not given, so values of variants with three or more changes are uncertain.

B1: CPEB3 Ribozyme (parent)
chain: UAACAGGGGGCCACAGCAGAAGCGUUCACGUCGCAGCCCCUGUCAGAUUCUGGUGAAUCUGCGAAUUCUGCUGUAUAUCUC

Variants of: B1
Assay: self-cleavage, relative activity (ratio to wild type); higher = more cleavage; in vitro, sequencing
Outline: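 After error-prone PCR and barcoding, CPEB3 ribozyme mutant libraries were transcribed with T7 RNA polymerase at 37°C for 5 hours, then given 15 min with DNase I before an EDTA stop, and they cleaved during both steps. Reverse transcription with template switching preceded Illumina sequencing. Relative activity divides a variant's cleaved/total read fraction by the unmutated ribozyme's. At least 5 reads were required per variant, and three batches were averaged.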

Variant | self-cleavage
UAACAGGGGGCCACAGCAGAAGCGUUCAAGUCGCAGCCCCUGUCGGAUUCCGGUGAAUCUGCGAAUUCUGCUGUAUAUCUC [C29A A45G U51C] | 0.2
UAACAGGGGGCCACAGCAGAAGCGUUCUCGUCGCAGCCCCUGUCAGAUUCUGGAGAUUCUGCGAAUUCUGCGGUAUAUCUC [A28U U54A A57U U72G] | 0.27
UAACAGGGGGCCACAGCAGAAGCGUUCUCGUCGCAGCCCCUGUCAGAUUCUGGUGAAUCUGCGAAUUCCGCUGUACUUCUC [A28U U69C U76C A77U] | 0.25
UAACAGGGGGCCACAGCAGAAGCGUUCUCGUCGCAGCCCCUGUCAGAUACUGGCGAAUCUGCUAAUUCUGCUGUAUAUCUC [A28U U49A U54C G63U] | 0.45
UAACAGGGGGCCACAGCAGAAGCGUUCAAGUCGCAGCCCCUGUCAGAUUCUGGUGAAUCUGCGAAUUCUGCUGUCCAUCUC [C29A A75C U76C] | 0.36
UAACAGGGGGCCACAGCAGAAGCGUUCUCGUCGCAGCCCCUGUCAGAUUCGGGUGAAUCUGCGAAUUCUGCCGUAUAUCUC [A28U U51G U72C] | 1.05
UAACAGGGGGCCACAGCAGAAGCGUUCAAGUCACGGCCCCUGUCAGAUUCUGGUGAAUCUGCGAGUCCUGCUGUAUGUCUC [C29A G33A A35G A65G U67C A77G] | 0.08
UAACAGGGGGCCACAGCAGAAGCGUUCUCGUCGCAGCCCCUGUCAGAUUCUGGUGAAUCCGCGAAUUCUGCCGUAUAUCUC [A28U U60C U72C] | 0.49
UAACAGGGGGCCACAGCAGAAGCGUUCAAGUCGCAGCCCCUAUCAGACUCAGGUGAAUCUGCGAAUUCUGCUGUACAUCCC [C29A G42A U48C U51A U76C U80C] | 0.08
UAACAGGGGGCCACAGCAGAAGCGUUCAAGUCGUAGCCCCUGUCAGAUUCUGGUGAAUCUGCGAACUCUGCUGUAUAUCUC [C29A C34U U66C] | 0.42
UAACAGGGGGCCACAGCAGAAGCGUUCAAGCCGCAGCCCCUGUCAGAUUCUGGAGAAUCAGCGAAUUCUGCUGUAUAUCCC [C29A U31C U54A U60A U80C] | 0.13
UAACAGGGGGCCACAGCAGAAGCGUUCUCGUCGCAGCCCCUGUCAGAUUCUGGCGAACCUGCGAAUUCUACGGUAUAUCUC [A28U U54C U58C G70A U72G] | 0.09
UAACAGGGGGCCACAGCAGAAGCGUUCUCGUCGCAGCCCCUGUCAGAUUCUGGUGAACCUGCGAAUCCCGCUGUAUAUCUC [A28U U58C U67C U69C] | 0.1
UAACAGGGGGCCACAGCAGAAGCGUUCUCGUCGCAGCCCCUGUCAGAUCCUGGUGAGUCUGCGAAAUCUGCUGUAUAUCUC [A28U U49C A57G U66A] | 0.19
UAACAGGGGGCCACAGCAGAAGCGUUCUCGUCGCAGCCCCUGUCAGAUUCUGGCGAAUCUGCGGAUUCUGCUGUAUAUCUC [A28U U54C A64G] | 0.78
UAACAGGGGGCCACAGCAGAAGCGUUCUCGUCGCAGCCCCUGUCAGAUUCUGGUGAAUCCGCGAAUACUACUGUAUAUCUC [A28U U60C U67A G70A] | 0.17
UAACAGGGGGCCACAGCAGAAGCGUUCAAGUCGCAGCCCCUAUCAGAUUCUGGUGAAUCCGUGAAUUCUGCUGUAUAUCUC [C29A G42A U60C C62U] | 0.39

Variant | self-cleavage
UAACAGGGGGCCACAGCAGAAGCGUUCUCGUCGCAGCCCCUGUCAGAGUUUGGUGAAUCUGCGAAUUCUGCUGUAUAUCUC [A28U U48G C50U] | 0.23
UAACAGGGGGCCACAGCAGAAGCGUUCAAGUCGCAGCCCCUGUCAGAUUCUGGUGGAUCUGCGAAUUCUGCCGUAUAUCUC [C29A A56G U72C] | 0.6
UAACAGGGGGCCACAGCAGAAGCGUUCUCGUCGCAGCCCCUGUCAGAUACCGGUGAAUCUGCGAAUUCUGCUGUAUACCUC [A28U U49A U51C U78C] | 0.49
UAACAGGGGGCCACAGCAGAAGCGUUCUCGUCGCAGCCCCUGUCAGAUCCUGGUGAAUCUGCGAAUUACGCUGUAUACCUC [A28U U49C C68A U69C U78C] | 0.09
UAACAGGGGGCCACAGCAGAAGCGUUCUCGUCGCAGCCCCUGUCAGAUCCAGGUGGGUCUGCGAAUUCUGUGGUAUAUCUC [A28U U49C U51A A56G A57G C71U U72G] | 0.23
UAACAGGGGGCCACAGCAGAAGCGUUCUCGUCGCAGCCCCUGUCAGAUUCUGGUGAAUCGGCGAAUUAUGCUGCAUAUCUC [A28U U60G C68A U74C] | 0.15
UAACAGGGGGCCACAGCAGAAGCGUUCUCGUCGCAGCCCCUGUCAGAUUCUGGUGAAUCGGCGAAUUCCGCUGUAUAUCUC [A28U U60G U69C] | 0.15
UAACAGGGGGCCACAGCAGAAGCGUUCAAGUCGCAGGCCCUGUCAGGCUCUGGUGAAUCUGCGAAUUCUGCUGUAAAUCUC [C29A C37G A47G U48C U76A] | 0.06
UAACAGGGGGCCACAGCAGAAGCGUUCUCGUCGCAGCCCCUGUCAGAUUCUGGCGAAUCUGCGAGUUCUGCUGUAUAUCUC [A28U U54C A65G] | 0.2
UAACAGGGGGCCACAGCAGAAGCGUUCUCGUCGCAGCCCCUGUCAGAUUCGGGUGAAUCUGCGGAUUCCGCUGUAUAUCAC [A28U U51G A64G U69C U80A] | 0.22
UAACAGGGGGCCACAGCAGAAGCGUUCUCGUCGCAGCCCCUGUCAGAUUCUGGUGAACCUGCGAAUUCUGCUGUAUAUCCC [A28U U58C U80C] | 0.29
UAACAGGGGGCCACAGCAGAAGCGUUCUCGUCGCAGCCCCUGUCAGAUUCUGGUGAAUCUGCGAAUUCCGCUGUGUAUCUC [A28U U69C A75G] | 0.35
UAACAGGGGGCCACAGCAGAAGCGUUCUCGUCGCAGCCCCUGUCAGAUACUGGUGAAUCUGCGAAUUCUGCUGUAUGUCUC [A28U U49A A77G] | 0.42
UAACAGGGGGCCACAGCAGAAGCGUUCAAGUCGCUGCCCCUGUCAGAUUCUGGUGAGUCUGCGUAUUCUGCUGUAUACCUC [C29A A35U A57G A64U U78C] | 0.14
UAACAGGGGGCCACAGCAGAAGCGUUCUCGUCGCAGCCCCUGUCAGAUUCUGGAGAGUCUGCGAAUUCUGCUGUAUAUCUC [A28U U54A A57G] | 0.66
UAACAGGGGGCCACAGCAGAAGCGUUCUCGUCGCAGCCCCUGUCAGAUUCUGGUGAAUCUGCGAAUUCAGCUGUAUGUCCC [A28U U69A A77G U80C] | 0.24
UAACAGGGGGCCACAGCAGAAGCGUUCUCGUCGCAGCCCCUGUCAGAUCCUGGUGAAUCUGCGAAUUCUGCUGUAUAUCAC [A28U U49C U80A] | 0.43
